# In the supplement of paper PMC12217912:
# Some of the results follow. The full chains were built here from the parent and the listed change. Inactive controls read about 0.05.
# B1: TEV protease; numbered along this chain (parent)
# chain: MGESLFKGPRDYNPISSSICHLTNESDGHTTSLYGIGFGPFIITNKHLFRRNNGTLVVQSLHGVFKVKDTTTLQQHLVDGRDMIIIRMPKDFPPFPQKLKFREPQREERICLVTTNFQTKSMSSMVSDTSCTFPSGDGIFWKHWIQTKDGQCGSPLVSTRDGFIVGIHSASNFTNTNNYFTSVPKNFMELLTNQEAQQWVSGWRLNADSVLWGGHKVFMVKPEEPFQPVKEATQL
# Variants of: B1
# Assay: raw area under fraction-flipped curve 0-4 h after induction (AUC4h, not background-subtracted), DNA-recorder readout of cleavage of the substrate (dimensionless); higher = more cleavage of the substrate by the protease variant
# Conditions: temperature: 34 °C; time window: 0-4 h after rhamnose induction
# 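Note: Bxb1 expression induced with 0.2% (w/v) L-rhamnose at OD600 near 0.5, cultures sampled hourly, flipped fraction per protease–substrate barcode pair counted by paired-end Illumina sequencing.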
Variant,area with substrate ENLYFQG,area with substrate ENLYFQH,area with substrate ENLYFQI,area with substrate ENLYFQK,area with substrate ENLYFQM,area with substrate ENLYFQS,area with substrate ENLYFQT,area with substrate ENLYFQD,area with substrate ENLYFQE,area with substrate ENLYFQL,area with substrate ENLYFQN,area with substrate ENLYFQR,area with substrate ENLYFQY,area with substrate ENLYFQW,area with substrate ENLYFQP,area with substrate ENLYFQV,area with substrate ENLYFQF,area with substrate ENLYFQQ
MGESLFKGPRDYNPISSSICHLTNESDGHTTSLYGIGFGPFIITNKHLFRRNNGTLVVQSLHGVFKVKDTTTLQQHLVDGRDMIIIRMPKDFPPFPQKLKFREPQREERICLVTTNFQTKSMSSMVSDTSSTFPSGDGIFWKHWIQTKDGQCGSPLVSTRDGFIVGIHSASNFTNTNNYFTSVPKNFMELLTNQEAQQWVSGWRLNADSVLWGGHKVFMVKPEEPFQPVKEATQL [C131S],0.122,0.0978,0.0659,0.039,0.0862,0.115,0.0602,–,–,–,–,–,–,–,–,–,–,–
MGESLFKGPRDYNPISSSICHLTNESDGHTTSLYGIGFGPFIITNKHLFRRNNGTLVVQSLHGVFKVKDTTTLQQHLVDGRDMIIIRMPKDFPPFPQKLKFREPQREERICLVTTNFQTKSMSSMVSDTSCTFPSGDGFFWKHWIQTKDGQCGSPLVSTRDGFIVGIHSASNFTNTNNYFTSVPKNFMELLTNQEAQQWVSGWRLNADSVLWGGHKVFMVKPEEPFQPVKEATQL [I139F],0.0839,–,0.0489,0.0199,0.0882,0.115,0.0697,0.0694,0.0753,0.0748,0.0779,0.0606,0.0666,–,–,–,–,–
MGESLFKGPRDYNPISSSICHLTNESDGHTTSLYGIGFGPFIITNKHLFRRNNGTLVVQSLHGVFKVKDTTTLQQHLVDGRDMIIIRMPKDFPPFPQKLKFREPQREERICLVTTNFQTKSMSSMVSDTSCTFPSGDGIAWKHWIQTKDGQCGSPLVSTRDGFIVGIHSASNFTNTNNYFTSVPKNFMELLTNQEAQQWVSGWRLNADSVLWGGHKVFMVKPEEPFQPVKEATQL [F140A],0.0758,–,–,–,–,0.061,–,0.0617,–,–,0.0236,0.0633,0.0409,0.0591,–,–,–,–
MGESLFKGPRDYNPISSSICHLTNESDGHTTSLYGIGFGPFIITNKHLFRRNNGTLVVQSLHGVFKVKDTTTLQQHLVDGRDMIIIRMPKDFPPFPQKLKFREPQREERICLVTTNFQTKSMSSMVSDTSCTFPSGDGIFWKHWIQTKDGQCGSPLVSTRHGFIVGIHSASNFTNTNNYFTSVPKNFMELLTNQEAQQWVSGWRLNADSVLWGGHKVFMVKPEEPFQPVKEATQL [D161H],–,0.0643,–,0.0614,–,0.07,0.076,0.0614,–,0.0552,0.0482,0.0755,0.0555,–,0.0619,–,–,–
MGESLFKGPRDYNPISSSICHLTNESDGHTTSLYGIGFGPFIITNKHLFRRNNGTLVVQSLHGVFKVKDTTTLQQHLVDGRDMIDIRMPKDFPPFPQKLKFREPQREERICLVTTNFQTKSMSSMVSDTSCTFPSGDGIFWKHWIQTKDGQCGSPLVSTRDGFIVGIHSASNFTNTNNYFTSVPKNFMELLTNQEAQQWVSGWRLNADSVLWGGHKVFMVKPEEPFQPVKEATQL [I85D],0.0675,–,–,0.0321,0.0573,0.0439,0.0612,–,–,0.047,–,–,0.0349,0.0283,–,0.0337,–,–
MGESLFKGPRDYNPISSSICHLTNESDGHTTSLYGIGFGPFIITNKHLFRRNNGTLVVQSLHGVFKVKDTTTLQQHLVDGRDMIIIRMPKDFPPFPQKLKFREPQREERICLVTTNFQTKSMSSMVSDTSCTFPSGDGIFWKHWIQTKDGQCGSYLVSTRDGFIVGIHSASNFTNTNNYFTSVPKNFMELLTNQEAQQWVSGWRLNADSVLWGGHKVFMVKPEEPFQPVKEATQL [P155Y],0.0492,–,0.0574,0.0413,0.0569,0.0533,0.0554,0.0424,–,–,0.0566,0.0392,0.0321,0.0478,–,0.048,–,–
MGESLFKGPRDYNPISSSICHLTNESDGHTTSLYGIGFGPFIITNKHLFRRNNGTLVVQSLHGVFKVKDTTTLQQHLVDGRDMIIIRMPKDFPPFPQKLKFREPQREERICLVTTNFQTKSMSSMVSDTCCTFPSGDGIFWKHWIQTKDGQCGSPLVSTRDGFIVGIHSASNFTNTNNYFTSVPKNFMELLTNQEAQQWVSGWRLNADSVLWGGHKVFMVKPEEPFQPVKEATQL [S130C],–,–,0.067,–,–,0.122,0.0873,–,–,0.0699,–,–,0.112,–,–,–,0.115,0.104
MGESLFKGPRDYNPISSSICHLTNESDGHTTSLYGIGFGPFIITNKHLFRRNNGTLVVQSLHGVFKVKDTTTLQQHLVDGRDMIIIRMPKDFPPFPQKLKFREPQREERICLVTTNFQTKSMSSMVSDTGCTFPSGDGIFWKHWIQTKDGQCGSPLVSTRDGFIVGIHSASNFTNTNNYFTSVPKNFMELLTNQEAQQWVSGWRLNADSVLWGGHKVFMVKPEEPFQPVKEATQL [S130G],0.0825,0.0837,0.0734,0.0687,0.0945,0.103,–,0.0807,–,0.0572,–,0.0511,0.0863,–,–,0.0583,–,0.0872
MGESLFKGPRDYNPISSSICHLTNESDGHTTSLYGIGFGPFIITNKHLFRRNNGTLVVQSLHGVFKVKDTTTLQQHLVDGRDMIIIRMPKDFPPFPQKLKFREPQREERICLVTTNFQTKSMSSMVYDTSCTFPSGDGIFWKHWIQTKDGQCGSPLVSTRDGFIVGIHSASNFTNTNNYFTSVPKNFMELLTNQEAQQWVSGWRLNADSVLWGGHKVFMVKPEEPFQPVKEATQL [S127Y],0.0897,–,0.0609,–,0.104,0.114,0.072,0.0622,–,0.0681,0.0822,–,–,0.0724,0.0573,0.0635,–,–
MGESLFKGPRDYNPISSSICHLTNESDGHTTSLYGIGFGPFIITNKHLFRRNNGTLVVQSLHGVFKVKDTTTLQQHLVDGRDMIIIRMPKDFPPFPQKLKFREPQREERICLVTTNFQTKSHSSMVSDTSCTFPSGDGIFWKHWIQTKDGQCGSPLVSTRDGFIVGIHSASNFTNTNNYFTSVPKNFMELLTNQEAQQWVSGWRLNADSVLWGGHKVFMVKPEEPFQPVKEATQL [M122H],0.0925,0.0766,0.0621,0.0643,0.0785,0.106,0.066,0.0721,–,0.0633,0.0845,0.0486,0.0638,0.0607,0.049,–,0.0866,–
